Source: patent publication US11420968B2 (priority 2018, dated 2022)

How the values were obtained:
Molt-4 cells = assay: cells; settings: Homo sapiens, MOLT-4, read-out: Cellular activity (IC50, nM) Molt-4
RS4;11 cells = assay: cells; settings: Homo sapiens, RS4-11, 48 h, read-out: Cellular activity (IC50, nM) RS4; 11

Compound	IC50 (Molt-4 cells) [nM]	IC50 (RS4;11 cells) [nM]
O=C(NS(=O)(=O)c1ccc(NCC2CCOCC2)c([N+](=O)[O-])c1)c1ccc(C2=CCC(N3CCC3c3ccccc3)CC2)cc1Oc1cnc2[nH]ccc2c1 (stereo not shown) [Example C99, 3-((1H-pyrrolo[2,3-b]pyridin-5-yl)oxy)-N-((3-nitro-4-(((tetrahydro-2H-pyran-4-yl)methyl)amino)phenyl)sulfonyl)-4′-(2-phenylazetidin-1-yl)-2′,3′,4′,5′-tetrahydro-[1,1′-biphenyl]-4-carboxamide]	> 10000	645
O=C(NS(=O)(=O)c1ccc(NCC2CCOCC2)c([N+](=O)[O-])c1)c1ccc(C2=CCC(N3CCCC3C3CCCC3)CC2)cc1Oc1cnc2[nH]ccc2c1 (stereo not shown) [Example C131, 3-((1H-pyrrolo[2,3-b]pyridin-5-yl)oxy)-4′-(2-cyclopentylpyrrolidin-1-yl)-N-((3-nitro-4-(((tetrahydro-2H-pyran-4-yl)methyl)amino)phenyl)sulfonyl)-2′,3′,4′,5′-tetrahydro-[1,1′-biphenyl]-4-carboxamide]	> 10000	621
O=C(NS(=O)(=O)c1ccc(NCC2CCOCC2)c([N+](=O)[O-])c1)c1ccc(C2=CCC(N3CCCC3c3cccc4c3OCO4)CC2)cc1Oc1cnc2[nH]ccc2c1 (stereo not shown) [Example C139, 3-((1H-pyrrolo[2,3-b]pyridin-5-yl)oxy)-4′-(2-(benzo[d][1,3]dioxol-4-yl)pyrrolidin-1-yl)-N-((3-nitro-4-(((tetrahydro-2H-pyran-4-yl)methyl)amino)phenyl)sulfonyl)-2′,3′,4′,5′-tetrahydro-[1,1′-biphenyl]-4-carboxamide]	> 10000	346
O=C(NS(=O)(=O)c1ccc(NCC2CCOCC2)c([N+](=O)[O-])c1)c1ccc(C2=CCC(N3CCCC3c3ccc(Cl)cc3C3CC3)CC2)cc1Oc1cnc2[nH]ccc2c1 (stereo not shown) [Example C143, 3-((1H-pyrrolo[2,3-b]pyridin-5-yl)oxy)-4′-(2-(4-chloro-2-cyclopropylphenyl)pyrrolidin-1-yl)-N-((3-nitro-4-(((tetrahydro-2H-pyran-4-yl)methyl)amino)phenyl)sulfonyl)-2′,3′,4′,5′-tetrahydro-[1,1′-biphenyl]-4-carboxamide]	4990	569
CC1(C)Oc2cccc(C3CCCN3C3CC=C(c4ccc(C(=O)NS(=O)(=O)c5ccc(NCC6CCOCC6)c([N+](=O)[O-])c5)c(Oc5cnc6[nH]ccc6c5)c4)CC3)c2O1 (stereo not shown) [Example C161, 3-((1H-pyrrolo[2,3-b]pyridin-5-yl)oxy)-4′-(2-(2,2-dimethylbenzo[d][1,3]dioxol-4-yl)pyrrolidin-1-yl)-N-((3-nitro-4-(((tetrahydro-2H-pyran-4-yl)methyl)amino)phenyl)sulfonyl)-2′,3′,4′,5′-tetrahydro-[1,1′-biphenyl]-4-carboxamide]	> 10000	400
N#CC1CCN(C2CC=C(c3ccc(C(=O)NS(=O)(=O)c4ccc(NCC5CCOCC5)c([N+](=O)[O-])c4)c(Oc4cnc5[nH]ccc5c4)c3)CC2)C1c1ccccc1C1CC1 (stereo not shown) [Example C163, 3-((1H-pyrrolo[2,3-b]pyridin-5-yl)oxy)-4′-(3-cyano-2-(2-cyclopropylphenyl)pyrrolidin-1-yl)-N-((3-nitro-4-(((tetrahydro-2H-pyran-4-yl)methyl)amino)phenyl)sulfonyl)-2′,3′,4′,5′-tetrahydro-[1,1′-biphenyl]-4-carboxamide]	9050	171
C#CC1CCN(C2CC=C(c3ccc(C(=O)NS(=O)(=O)c4ccc(NCC5CCOCC5)c([N+](=O)[O-])c4)c(Oc4cnc5[nH]ccc5c4)c3)CC2)C1c1ccccc1C1CC1 (stereo not shown) [Example C164, 3-((1H-pyrrolo[2,3-b]pyridin-5-yl)oxy)-4′-(2-(2-cyclopropylphenyl)-3-ethynylpyrrolidin-1-yl)-N-((3-nitro-4-(((tetrahydro-2H-pyran-4-yl)methyl)amino)phenyl)sulfonyl)-2′,3′,4′,5′-tetrahydro-[1,1′-biphenyl]-4-carboxamide]	4140	141
O=C(NS(=O)(=O)c1ccc(NCC2CCOCC2)c([N+](=O)[O-])c1)c1ccc(C2=CCC(N3CCCC3c3cc(C4CC4)ccc3F)CC2)cc1Oc1cnc2[nH]ccc2c1 (stereo not shown) [Example C168, 3-((1H-pyrrolo[2,3-b]pyridin-5-yl)oxy)-4′-(2-(5-cyclopropyl-2-fluorophenyl)pyrrolidin-1-yl)-N-((3-nitro-4-(((tetrahydro-2H-pyran-4-yl)methyl)amino)phenyl)sulfonyl)-2′,3′,4′,5′-tetrahydro-[1,1′-biphenyl]-4-carboxamide]	> 10000	363
Cc1ccc(C2CC2)c(C2CCCN2C2CC=C(c3ccc(C(=O)NS(=O)(=O)c4ccc(NCC5CCOCC5)c([N+](=O)[O-])c4)c(Oc4cnc5[nH]ccc5c4)c3)CC2)c1 (stereo not shown) [Example C170, 3-((1H-pyrrolo[2,3-b]pyridin-5-yl)oxy)-4′-(2-(2-cyclopropyl-5-methylphenyl)pyrrolidin-1-yl)-N-((3-nitro-4-(((tetrahydro-2H-pyran-4-yl)methyl)amino)phenyl)sulfonyl)-2′,3′,4′,5′-tetrahydro-[1,1′-biphenyl]-4-carboxamide]	> 10000	118
CN(C)CCN(C)c1ccc(C2CC2)c(C2CCCN2C2CC=C(c3ccc(C(=O)NS(=O)(=O)c4ccc(NCC5CCOCC5)c([N+](=O)[O-])c4)c(Oc4cnc5[nH]ccc5c4)c3)CC2)c1 (stereo not shown) [Example C171, 3-((1H-pyrrolo[2,3-b]pyridin-5-yl)oxy)-4′-(2-(2-cyclopropyl-5-((2-(dimethylamino)ethyl)(methyl)amino)phenyl)pyrrolidin-1-yl)-N-((3-nitro-4-(((tetrahydro-2H-pyran-4-yl)methyl)amino)phenyl)sulfonyl)-2′,3′,4′,5′-tetrahydro-[1,1′-biphenyl]-4-carboxamide]	> 10000	492
CN(c1ccccc1C1CCCN1C1CC=C(c2ccc(C(=O)NS(=O)(=O)c3ccc(NCC4CCOCC4)c([N+](=O)[O-])c3)c(Oc3cnc4[nH]ccc4c3)c2)CC1)C1CC1 (stereo not shown) [Example C174, 3-((1H-pyrrolo[2,3-b]pyridin-5-yl)oxy)-4′-(2-(2-(cyclopropyl(methyl)amino)phenyl)pyrrolidin-1-yl)-N-((3-nitro-4-(((tetrahydro-2H-pyran-4-yl)methyl)amino)phenyl)sulfonyl)-2′,3′,4′,5′-tetrahydro-[1,1′-biphenyl]-4-carboxamide]	> 10000	260
CN1CC=C(c2ccccc2C2CCCN2C2CC=C(c3ccc(C(=O)NS(=O)(=O)c4ccc(NCC5CCOCC5)c([N+](=O)[O-])c4)c(Oc4cnc5[nH]ccc5c4)c3)CC2)CC1 (stereo not shown) [Example C175, 3-((1H-pyrrolo[2,3-b]pyridin-5-yl)oxy)-4′-(2-(2-(1-methyl-1,2,3,6-tetrahydropyridin-4-yl)phenyl)pyrrolidin-1-yl)-N-((3-nitro-4-(((tetrahydro-2H-pyran-4-yl)methyl)amino)phenyl)sulfonyl)-2′,3′,4′,5′-tetrahydro-[1,1′-biphenyl]-4-carboxamide]	> 10000	476
C=C1CC(c2ccccc2C2CC2)N(C2CC=C(c3ccc(C(=O)NS(=O)(=O)c4ccc(NCC5CCOCC5)c([N+](=O)[O-])c4)c(Oc4cnc5[nH]ccc5c4)c3)CC2)C1 (stereo not shown) [Example C180, 3-((1H-pyrrolo[2,3-b]pyridin-5-yl)oxy)-4′-(2-(2-cyclopropylphenyl)-4-methylenepyrrolidin-1-yl)-N-((3-nitro-4-(((tetrahydro-2H-pyran-4-yl)methyl)amino)phenyl)sulfonyl)-2′,3′,4′,5′-tetrahydro-[1,1′-biphenyl]-4-carboxamide]	1990	118
COC(c1ccccc1C1CC1)C1CCCN1C1CC=C(c2ccc(C(=O)NS(=O)(=O)c3ccc(NCC4CCOCC4)c([N+](=O)[O-])c3)c(Oc3cnc4[nH]ccc4c3)c2)CC1 (stereo not shown) [Example C183, 3-((1H-pyrrolo[2,3-b]pyridin-5-yl)oxy)-4′-(2-((2-cyclopropylphenyl)(methoxy)methyl)pyrrolidin-1-yl)-N-((3-nitro-4-(((tetrahydro-2H-pyran-4-yl)methyl)amino)phenyl)sulfonyl)-2′,3′,4′,5′-tetrahydro-[1,1′-biphenyl]-4-carboxamide]	> 10000	187
CC(C)c1ccccc1CC1CCCN1C1CC=C(c2ccc(C(=O)NS(=O)(=O)c3ccc(NCC4CCOCC4)c([N+](=O)[O-])c3)c(Oc3cnc4[nH]ccc4c3)c2)CC1 (stereo not shown) [Example C184, 3-((1H-pyrrolo[2,3-b]pyridin-5-yl)oxy)-4′-(2-(2-isopropylbenzyl)pyrrolidin-1-yl)-N-((3-nitro-4-(((tetrahydro-2H-pyran-4-yl)methyl)amino)phenyl)sulfonyl)-2′,3′,4′,5′-tetrahydro-[1,1′-biphenyl]-4-carboxamide]	7120	226
O=C(NS(=O)(=O)c1ccc(NCC2CCOCC2)c([N+](=O)[O-])c1)c1ccc(C2=CCC(N3CCCC3c3ccc(C4CC4)cc3)CC2)cc1Oc1cnc2[nH]ccc2c1 (stereo not shown) [Example C192, 3-((1H-pyrrolo[2,3-b]pyridin-5-yl)oxy)-4′-(2-(4-cyclopropylphenyl)pyrrolidin-1-yl)-N-((3-nitro-4-(((tetrahydro-2H-pyran-4-yl)methyl)amino)phenyl)sulfonyl)-2′,3′,4′,5′-tetrahydro-[1,1′-biphenyl]-4-carboxamide]	6830	57
CCCCC1C2CCCC2CN1C1CC=C(c2ccc(C(=O)NS(=O)(=O)c3ccc(NCC4CCOCC4)c([N+](=O)[O-])c3)c(Oc3cnc4[nH]ccc4c3)c2)CC1 (stereo not shown) [Example C193, 3-((1H-pyrrolo[2,3-b]pyridin-5-yl)oxy)-4′-(1-butylhexahydrocyclopenta[c]pyrrol-2(1H)-yl)-N-((3-nitro-4-(((tetrahydro-2H-pyran-4-yl)methyl)amino)phenyl)sulfonyl)-2′,3′,4′,5′-tetrahydro-[1,1′-biphenyl]-4-carboxamide]	3950	159
